According to paper PMC12040169 (PLOS Biology, 2025):
The list shows a part of the results.

System: T1, C. trachomatis L2/434/Bu expressing GFP (CTL2-GFP)
T1 construct: L2/434/Bu GFP intracellular growth in HeLa cells
Design: species or system HeLa; C. trachomatis total inclusion area by high-content imaging, normalised to DMSO
Settings: total inclusion area; 28.5 h, 10 µM; inhibitor
Summary of the method: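 Bulk GFP and resorufin signals were read first. Wells were then fixed, stained with Hoechst and imaged to detect GFP inclusions and host nuclei. MICs followed the previously described calculation.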

| Structure (SMILES) | % of control remaining |
| --- | --- |
| COc1cccc2cc(C(=O)NCCCN3CCN(C)CC3)oc12 [CBK149788] | 89.1088 |
| O=[N+]([O-])c1cccc(-c2ccc(OC3CCNCC3)cc2)c1 [CBK126465T] | 60.3403 |
| O=C(NCc1cccnc1)N1CCN(CCc2ccccc2)CC1 [CBK158906] | 98.5163 |
| CC1CCc2c(sc3ncnc(OCC(=O)N4CCNC4=O)c23)C1 (centres unmarked) [CBK305775] | 102.889 |
| Cc1nc2c(c(CCC(=O)O)n1)CCCC2 [CBK023157] | 57.5364 |
| Cn1nnnc1-c1cccc(NC(=O)c2ccc(Oc3ccccc3)cc2)c1 [CBK297872] | 37.9672 |
| COc1ccc(NC(=O)C(=O)NCc2ccncc2)cc1 [CBK287723] | 89.1736 |
| O=C(CSc1nnc(COc2ccccc2)o1)c1cccc([N+](=O)[O-])c1 [CBK267868] | 103.387 |
| Cc1nn(CC(=O)NC2CCCCC2)c(=O)c2cc3ccsc3n12 [CBK284080] | 96.5841 |
| CN(C)CCN(Cc1ccccn1)c1ncccn1 [CBK020142] | 68.269 |
| COc1ccc(CCNC(=O)N2CCC(C(=O)O)CC2)cc1OC [CBK161404] | 63.6132 |
| O=C(O)Cn1nnc(-c2ccncc2)n1 [CBK269884] | 82.9836 |
| Cc1nnc(CSc2ncc(-c3ccc(Cl)cc3)n2Cc2ccccc2)o1 [CBK297154] | 108.149 |
| COc1ccc(C(=O)OC(C)(C)C)c(-c2cncc(N3CCCCC3CCO)n2)c1 (centres unmarked) [CBK037786] | 118.669 |
| COc1ccc(-n2ncc3c(N4CCN(C)CC4)ncnc32)cc1 [CBK265848] | 47.5633 |
| CC(=O)N(C)c1nc(-c2ccccc2C)ccc1C(=O)Nc1cc(C)nn1C [CBK106357] | 121.726 |
| CC(Oc1ccc(Cl)cc1Cl)C(=O)Nc1ccc(N2CCN(C)CC2)c(Cl)c1 (centres unmarked) [CBK268563] | 89.9845 |
| CC(C)C(=O)NC1CCN(C(=O)CCn2ccc3ccncc32)CC1 [CBK284730] | 59.9557 |
| O=C(NC(=S)Nc1ccc2[nH]c(=O)[nH]c2c1)c1ccc(OCc2ccccc2)cc1 [CBK268908] | 100.031 |
| O=[N+]([O-])c1ccc(N2CCN(CCO)CC2)cc1NCc1ccc(Cl)cc1 [CBK042201] | 90.2578 |
| CN(C)C(=O)Cc1ccc(Cn2ccnc(N3CCC(Sc4ccccc4)CC3)c2=O)cc1 [CBK153652] | 88.712 |
| O=C1NC(Nc2ccc(SCCN3CCOCC3)cc2)c2ccccc21 (centres unmarked) [CBK010123] | 112.142 |
| CN1CCN(C(=O)C2CCCN(S(=O)(=O)c3ccc(Br)cc3)C2)CC1 (centres unmarked) [CBK269006] | 94.7419 |
| CCNC(=O)N1CC2(CCN(CCCC#N)CC2)c2ccccc21 [CBK136970] | 107.521 |
| Fc1ccc(CCN2CCC(Oc3cncc(OCC4COc5ccccc5O4)n3)C2)cc1 (centres unmarked) [CBK084383] | 80.6663 |
| CN1CCCc2c1nc1ccc(Br)cc1c2N [CBK009692G] | 46.512 |
| COc1cc(CNn2c(C)nnc2S)cc(Br)c1OCC(=O)NC(C)(C)C [CBK266575] | 98.4559 |

| Structure (SMILES) | % of control remaining |
| --- | --- |
| O=C1Cc2c(ccc3ccccc23)C2(CCN(CCCC(F)(F)F)CC2)N1 [CBK039912] | 112.687 |
| COC(=O)C(N)c1c[nH]c2ccccc12 (centres unmarked) [CBK089840] | 46.4377 |
| CC(C)(C)c1ccc(S(=O)(=O)N2CCCCC2CCO)cc1[N+](=O)[O-] (centres unmarked) [CBK200067] | 75.7424 |
| CO[C@H]1CC[C@H](C(=O)NC(c2ccccc2)c2nccn2C)CC1 (some centres unmarked) [CBK283852] | 90.603 |
| Cc1nn(CC(C)C)c(C)c1CCC(=O)N(C)Cc1c(C)nn(-c2ccccc2)c1C [CBK295301] | 88.4192 |
| Cc1nnc(Sc2cc(C(F)(F)F)ccn2)s1 [CBK115215] | 88.4589 |
| CCOC(=O)C1(C2CCCCC2)CCN(C(=O)CN2C(=O)CSC2=O)CC1 [CBK160993] | 74.9836 |
| O=C(Nc1ccc(Cl)cc1)N1CCN(c2ccccc2)CC1 [CBK155188] | 103.088 |
| COc1ccc(C(C)C)cc1-c1cncc(N[C@@H](C)c2ccccc2)n1 [CBK065504] | 84.9252 |
| Cc1noc(C)c1S(=O)(=O)Nc1cc(C(F)(F)F)ccc1N1CCOCC1 [CBK062545] | 102.229 |
| Cc1nc(N2CCCC2)ncc1-c1cc(=O)[nH]c(N2CCCCC2)n1 [CBK288226] | 91.6341 |
| N#Cc1ccc(CN2CCCN(S(=O)(=O)c3ccc(C(=O)c4ccccc4)cc3)CC2)cc1 [CBK062962] | 78.275 |
| Cc1ccccc1-c1nc2ccc(NC(=O)CCC(=O)O)cc2o1 [CBK269904] | 95.9059 |
| COc1ccccc1-c1ncc(OCCN2CCOCC2)nc1N [CBK145072] | 110.182 |
| O=C(O)c1cccc2c1C(=O)N(Cc1ccccc1F)C2 [CBK291172] | 118.674 |
| Cc1noc(C)c1CC(=O)N(C)CCN1CCCCC1 [CBK281855] | 112.651 |
| CC(C)(C)C(=O)NCCn1nc(-c2cccs2)oc1=O [CBK282344] | 57.3632 |
| CCNC(=O)O[C@@H]1CO[C@H]2[C@@H]1OC[C@@H]2NC(=O)c1ccc(C)cc1 [CBK289472] | 88.1819 |
| Cc1cn([C@H]2C[C@@H](O)[C@@H](CI)O2)c(=O)[nH]c1=O [CBK201197] | 128.858 |
| COCC(C)NCc1cc(-c2ccc(Cl)cc2)c[nH]c1=O (centres unmarked) [CBK284726] | 84.2335 |
| CN(C(=O)CN1CSCC1=O)c1nc2c(s1)CC(c1ccccc1)CC2 (centres unmarked) [CBK305526] | 57.8739 |
| CC(=O)c1cccc(-c2cnc(Nc3ccc(N4CCOCC4)cc3)c3nccn23)c1 [CBK091217] | 104.896 |
| Cc1ccc(OCC(=O)Nc2ccc3c(c2)nc2n3CCOC2)cc1 [CBK288005] | 87.5986 |
| COc1cccc(-c2ccc(NS(=O)(=O)c3ccc4c(c3)CCC(=O)N4)cc2)c1 [CBK286373] | 100.719 |
| O=C(Nc1ccc(Br)cc1C(=O)O)c1cccs1 [CBK066822] | 131.618 |
| N#CC(CCCN1CCN(c2ccccc2)CC1)(c1ccccc1)c1ccccc1 [CBK002243C] | 46.2994 |
| O=C(O)c1cc(C(=O)O)n(Cc2ccc(Cl)cc2Cl)n1 [CBK268283] | 78.5623 |

| Structure (SMILES) | % of control remaining |
| --- | --- |
| CN1CCN(S(=O)(=O)c2ccc3oc(=O)ccc3c2)CC1 [CBK062431] | 55.2677 |
| O=C(CC(CN1CCN(c2cccc(Cl)c2)CC1)C(=O)O)NCc1ccccc1 (centres unmarked) [CBK286787] | 93.1754 |
| Cn1c(N)c(C(=O)NCC2CCCO2)c2nc3ccccc3nc21 (centres unmarked) [CBK269342] | 108.456 |
| c1cncc(-c2nnc([C@H]3CCN(C4CCOCC4)C3)o2)c1 [CBK289398] | 125.133 |
| COc1ccc(C(C)(C)C)cc1NC(=O)c1ccncc1 [CBK288248] | 113.397 |
| CCN(CC)C(=O)Cn1ncc2c3sc(C)cc3n(C)c2c1=O [CBK284156] | 88.2676 |
| COc1cccc(CNC(=O)C2CCCN(c3nc4c(-c5ccccc5)csc4c(=O)[nH]3)C2)c1 (centres unmarked) [CBK215463] | 124.795 |
| Cn1ccc(C2CCCCCN2S(=O)(=O)c2ccc(F)cc2)n1 (centres unmarked) [CBK284671] | 88.3985 |
| CC(C)C(NS(=O)(=O)c1ccc2ccccc2c1)C(=O)O (centres unmarked) [CBK286919] | 98.6589 |
| CC(Sc1nnc2[nH]c3ccccc3n12)C(=O)O (centres unmarked) [CBK265822] | 125.784 |
| Cc1csc(N2CCN(CC(O)COCc3ccco3)CC2)n1 (centres unmarked) [CBK306151] | 106.696 |
| Cc1ccc(S(=O)(=O)Nc2nnc(SCC(=O)Nc3ccc4c(c3)OCO4)s2)cc1 [CBK026675] | 86.5904 |
| CC(=O)ON=C1c2cc(S(=O)(=O)N(C)C)ccc2-c2ccc(S(=O)(=O)N(C)C)cc21 [CBK262807] | 85.046 |
| CN(C)C(=O)CCc1nc(-c2ccccn2)no1 [CBK297735] | 95.1957 |
| Cn1ccnc1C1(O)CC2CCC(C1)N2C(=O)Nc1ccc(F)cc1 (centres unmarked) [CBK284051] | 92.7286 |
| CNC(=O)C1(Cc2ccccc2-c2cccs2)CCN(C(=O)Cc2cccc(C)c2)CC1 [CBK285686] | 106.181 |
| Cc1cc2ncn(CC(=O)N3CCc4ccccc43)c2cc1C [CBK200270] | 85.1379 |
| Cc1nc2ccc(C(=O)c3ccccc3O)cn2c(=O)c1CCC(=O)O [CBK295618] | 99.1667 |
| CC1CCN(S(=O)(=O)c2cccc(C(=O)NNC(=O)c3cccc([N+](=O)[O-])c3)c2)CC1 [CBK266774] | 91.1813 |
| COc1ccccc1-c1nccnc1OCc1ccccc1 [CBK106817] | 87.7311 |
| Cc1nc[nH]c1CN(CCCn1ccnc1)Cc1ccccc1Cl [CBK282473] | 124.888 |
| O=C1Cc2ccccc2C2(CCN(C(=O)Nc3c(F)cccc3F)CC2)N1 [CBK047296] | 104.69 |
| Cc1nc(CC(=O)NC2CCCN(c3ccn(C)n3)C2=O)c(C)s1 (centres unmarked) [CBK304422] | 95.1761 |
| COc1ccc(OC)c(-n2c(C)cn3c4c(=O)[nH]c(=O)n(C)c4nc23)c1 [CBK141314] | 28.0945 |
| CNC(=O)NC(=O)C1CCN(CCc2ccccc2)CC1 [CBK034956] | 73.2215 |
| Cc1ccccc1OCC(O)CNC(=O)c1ccccc1C(=O)O (centres unmarked) [CBK264824] | 107.712 |
